# Data taken from PubChem BioAssay (Tox21).
# Where “and” joins values, the source holds several entries; their conditions need not be identical. Equal entries are not always repeated. The inconclusive results got no clear call from the source; some entries with a clear call stand among them for comparison. Potencies of inconclusive entries are doubtful fits and often do not repeat. Some compounds were tested as several samples or in several runs, with calls that do not always agree. Calls of active or inactive are those of the source. The call rests on the fitted dose curve; in most records, active means well fitted curve in the direction sought with a large enough effect in the repeat runs; inconclusive means weak or mixed curves; inactive means no such curve, though single readings can be large; an effect the other way counts as inactive or inconclusive.
# Assays:
# [1] = A CellTox Green Cytotoxicity Assay to monitor cytotoxicity in HepG2 cells - 0 hour (AID 1224882); further: nearly all actives have a fitted effect of over 35% in size
# In short: (§1)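 HepG2, 600 cells/well premixed w/ CellTox Green; 5 h settle, 37 C/5% CO2; pintool cpd add (DMSO); 37 C, 40 h; fluorescence read at 0, 8, 16, 24, 32, 40 h.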
# [2] = qHTS RealTime-Glo MT Cell Viability Assay in HEK293 cells - 24 hour (AID 1224886); further: nearly all actives have a fitted effect of over 50% in size
# In short: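 Quantitative high-throughput screen of the Tox21 10K library in HEK293: cells and RealTime-Glo reagents plated together, compound added at 5 h, luminescence monitored through 40 h at 37 C.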
# [3] = A CellTox Green Cytotoxicity Assay to monitor cytotoxicity in HEK293 cells - 32 hour (AID 1224881); further: nearly all actives have a fitted effect of over 40% in size
# In short: (§2)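 Read-out: fluorescence of a cell-impermeant cyanine dye staining DNA of dead cells, proportional to cytotoxicity. HEK293, 600 cells/well with reagent, compound (23 nL DMSO) added after 5 h; reads at 0, 8, 16, 24, 32, 40 h.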
# [4] = A CellTox Green Cytotoxicity Assay to monitor cytotoxicity in HEK293 cells - 16 hour (AID 1224888); further: nearly all actives have a fitted effect of over 35% in size
# In short: as §2
# [5] = A CellTox Green Cytotoxicity Assay to monitor cytotoxicity in HepG2 cells - 32 hour (AID 1224883); further: nearly all actives have a fitted effect of over 50% in size
# In short: as §1
# [6] = qHTS RealTime-Glo MT Cell Viability Assay in HEK293 cells - 8 hour (AID 1224887); further: nearly all actives have a fitted effect of over 50% in size
# In short: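 Luminescence readout at each listed time point; HEK293, 600 cells/well, RealTime-Glo MT reagent added with cells; compounds pinned (23 nL in DMSO) after 5 h at 37 C; continuous culture at 37 C.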
# [7] = qHTS RealTime-Glo MT Cell Viability Assay in HepG2 cells - 16 hour (AID 1224885); further: nearly all actives have a fitted effect of over 50% in size
# In short: (§3)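 Compound treatment began 5 h after plating HepG2 cells (600/well) with NanoLuc luciferase and prosubstrate. Plates stayed at 37 C for 40 h; luminescence was captured at six time points, 0 h through 40 h.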
# [8] = qHTS RealTime-Glo MT Cell Viability Assay in HepG2 cells - 0 hour (AID 1224889); further: nearly all actives have a fitted effect of over 50% in size
# In short: as §3
# [9] = A CellTox Green Cytotoxicity Assay to monitor cytotoxicity in HEK293 cells - 8 hour (AID 1224884); further: nearly all actives have a fitted effect of over 35% in size
# In short: as §2
# Potency means the concentration at half of the fitted maximal effect; tags describe the fitted curve by direction and shape.
compound,measurement,setting,value
COCC(=O)O[C@]1(CCN(C)CCCc2nc3ccccc3[nH]2)CCc2cc(F)ccc2[C@@H]1C(C)C,Potency,[1],"inconclusive: 26.8 µM [activator, single point]"
same,Potency,[2],active: 6.01 µM
CCCCC,Potency,[3],"inconclusive: 21.5 µM [activator, single point]"
same,Potency,[4],"inconclusive: 24.2 µM [activator, single point]"
COC(=O)CCC(=O)OC,Potency,[3],"inconclusive: 63.3 µM [activator, single point]"
same,Potency,[4],"inconclusive: 63.3 µM [activator, single point]"
CCO[Si](CCCSSSSCCC[Si](OCC)(OCC)OCC)(OCC)OCC,Potency,[3],"inconclusive: 55 µM [activator, single point]"
same,Potency,[4],"inconclusive: 55 µM [activator, single point]"
CCCCCCCCCCCCN1CCCCCC1=O,Potency,[1],"inconclusive: 54.9 µM [activator, single point]"
same,Potency,[5],"inconclusive: 54.9 µM [activator, single point]"
same,Potency,[2],"inconclusive: 24.5 µM [cytotoxic, partial curve]"
same,Potency,[6],"inconclusive: 21.9 µM [cytotoxic, partial curve, poor fit]"
Oc1ccc(Cl)cc1Sc1cc(Cl)ccc1O,Potency,[1],"inconclusive: 26.8 µM [activator, single point]"
same,Potency,[5],active: 48.9 µM and active: 26.8 µM
same,Potency,[7],"inconclusive: 48.9 µM [cytotoxic, partial curve] and inconclusive: 23.9 µM [cytotoxic, single point]"
same,Potency,[2],active: 19.5 µM and active: 23.9 µM
same,Potency,[6],"inconclusive: 23.9 µM [cytotoxic, partial curve]"
O=Cc1ccccc1C=O,Potency,[1],inactive
same,Potency,[5],active: 21.9 µM
same,Potency,[7],"inconclusive: 19.5 µM [cytotoxic, full curve]"
same,Potency,[2],"inconclusive: 34.7 µM [cytotoxic, partial curve, poor fit]"
COc1cc(C(=O)NC2CCN(C)CC2)ccc1Nc1ncc2c(n1)N(C1CCCC1)CC(F)(F)C(=O)N2C,Potency,[3],active: 35.7 µM
same,Potency,[6],"inconclusive: 11.3 µM [cytotoxic, partial curve]"
same,Potency,[4],active: 17.9 µM
C=CCCC(=O)/C=C/C1C(C)=CCCC1(C)C (stereo not drawn),Potency,[3],active: 24.5 µM
same,Potency,[4],"inconclusive: 43.6 µM [activator, partial curve]"
CC(=O)Nc1ncc([N+](=O)[O-])s1,Potency,[1],"inconclusive: 26.8 µM [activator, single point]"
C=CC(=O)Nc1cc2c(Nc3ccc(F)c(Cl)c3)ncnc2cc1OCCCN1CCOCC1,Potency,[3],active: 12 µM
same,Potency,[6],active: 9.52 µM
same,Potency,[8],active: 9.52 µM
O=C(c1ccccc1)c1ccccc1O,Potency,[3],"inconclusive: 63.2 µM [activator, single point]"
same,Potency,[6],inactive
OC[C@H]1O[C@@H](O[C@@H]2[C@@H](CO)O[C@](O)(CO)[C@H]2O)[C@H](O)[C@@H](O)[C@H]1O,Potency,[1],"inconclusive: 15.1 µM [activator, single point]"
c1cc2c3c(c1)ccc1cccc(c13)C2,Potency,[3],active: 50 µM
same,Potency,[4],"inconclusive: 56.1 µM [activator, single point]"
O=S(=O)(O)c1ccc(O)cc1,Potency,[1],inactive
COc1ccccc1O,Potency,[3],"inconclusive: 62 µM [activator, single point]"
same,Potency,[4],"inconclusive: 62 µM [activator, single point]"
Cc1cc(=O)oc2cc(O)cc(O)c12,Potency,[3],"inconclusive: 61.9 µM [activator, single point]"
same,Potency,[6],inactive
same,Potency,[4],"inconclusive: 61.9 µM [activator, single point]"
NC(=O)c1ccncc1,Potency,[3],inactive
same,Potency,[6],inactive
COC(=O)c1nc(Cl)c(Cl)nc1N,Potency,[1],"inconclusive: 10.7 µM [activator, single point]"
same,Potency,[7],"inconclusive: 23.9 µM [cytotoxic, partial curve]"
same,Potency,[6],active: 6.74 µM
same,Potency,[4],"inconclusive: 26.8 µM [activator, single point]"
CO[C@@]1(NC(=O)C(C(=O)O)c2ccc(O)cc2)C(=O)N2C(C(=O)O)=C(CSc3nnnn3C)CO[C@@H]21 (stereo partly drawn),Potency,[1],"inconclusive: 0.952 µM [activator, single point]"
NC=O,Potency,[3],"inconclusive: 60.9 µM [activator, partial curve, poor fit]"
same,Potency,[4],"inconclusive: 68.3 µM [activator, single point]"
O=C(OCC(COC(=O)c1ccccc1)(COC(=O)c1ccccc1)COC(=O)c1ccccc1)c1ccccc1,Potency,[3],"inconclusive: 1.09 µM [activator, single point]"
same,Potency,[6],active: 24.5 µM
same,Potency,[4],"inconclusive: 1.09 µM [activator, single point]"
COc1cc2nc(N3CCN(C(=O)c4ccco4)CC3)nc(N)c2cc1OC,Potency,[1],"inconclusive: 6.57 µM [activator, single point]"
CCC(C)(C)C(=O)O,Potency,[1],inactive
same,Potency,[6],inactive
CC(=O)C1(C)CC2=C(CCCC2(C)C)CC1C (stereo not drawn),Potency,[3],"inconclusive: 23.4 µM [activator, partial curve, poor fit] and inconclusive: 54.9 µM [activator, single point]"
same,Potency,[4],"inconclusive: 54.9 µM [activator, single point]"
C[C@H]1[C@H]2CC[C@H]3[C@@H]4CC=C5C[C@@H](N(C)C)CC[C@]5(C)[C@H]4CC[C@]23CN1C,Potency,[1],"inconclusive: 15.1 µM [activator, single point]"
CC[C@@]1(O)C(=O)OCc2c1cc1n(c2=O)Cc2cc3c(CN(C)C)c(O)ccc3nc2-1,Potency,[3],active: 23.9 µM
same,Potency,[4],active: 26.8 µM
same,Potency,[8],inactive
CN1CCC(N(Cc2cccs2)c2ccccc2)CC1,Potency,[1],"inconclusive: 12 µM [activator, single point]"
same,Potency,[9],active: 19 µM
same,Potency,[4],active: 19 µM
O=C1OC2(c3ccc(O)cc3Oc3cc(O)ccc32)c2ccc(N=C=S)cc21,Potency,[1],active: 15.8 µM
same,Potency,[5],active: 15.8 µM
same,Potency,[7],"inconclusive: 39.6 µM [cytotoxic, partial curve]"
same,Potency,[2],"inconclusive: 55.9 µM [cytotoxic, single point]"
same,Potency,[6],"inconclusive: 49.9 µM [cytotoxic, partial curve]"
same,Potency,[4],active: 12.5 µM
same,Potency,[8],active: 22.3 µM
O=c1c(O)c(-c2ccc(O)c(O)c2)oc2cc(O)cc(O)c12,Potency,[1],"inconclusive: 23.9 µM [activator, single point]"
O=C(CCCN1CCC(O)(c2ccc(Cl)cc2)CC1)c1ccc(F)cc1,Potency,[7],active: 49 µM
Cc1ccc(C=O)s1,Potency,[7],inactive
CCC(C)n1ncn(-c2ccc(N3CCN(c4ccc(OC[C@H]5CO[C@](Cn6cncn6)(c6ccc(Cl)cc6Cl)O5)cc4)CC3)cc2)c1=O (stereo partly drawn),Potency,[9],"inconclusive: 6.01 µM [activator, partial curve, poor fit]"
same,Potency,[7],"inconclusive: 10.7 µM [cytotoxic, partial curve]"
same,Potency,[2],"inconclusive: 6.01 µM [cytotoxic, full curve]"
same,Potency,[6],"inconclusive: 7.56 µM [cytotoxic, partial curve]"
CCCCCC(CC)OC(=O)CCCOc1ccc(Cl)cc1Cl (stereo not drawn),Potency,[7],"inconclusive: 5.48 µM [cytotoxic, single point]"
COc1ccc2c(c1)c(CC(=O)OC/C=C(\C)CC/C=C(\C)CCC=C(C)C)c(C)n2C(=O)c1ccc(Cl)cc1,Potency,[9],"inconclusive: 19 µM [activator, partial curve]"
same,Potency,[2],inactive
same,Potency,[6],"inconclusive: 19 µM [cytotoxic, partial curve]"
O=C1c2ccccc2Cc2ccccc21,Potency,[9],"inconclusive: 62.1 µM [activator, single point]"
same,Potency,[2],inactive
COc1cccc2c1C(=O)c1c(O)c3c(c(O)c1C2=O)C[C@@](O)(C(=O)CO)C[C@@H]3O[C@H]1C[C@H](N)[C@H](O)[C@H](C)O1,Potency,[9],"inconclusive: 24.5 µM [activator, single point] and inconclusive: 23.9 µM [activator, single point]"
same,Potency,[7],"inconclusive: 7.56 µM [cytotoxic, partial curve]"
same,Potency,[2],active: 155 nM and active: 301 nM
same,Potency,[4],"inconclusive: 23.9 µM [activator, single point]"
same,Potency,[8],"inconclusive: 26.8 µM [cytotoxic, partial curve, poor fit]"
CC(=O)CC(=O)Nc1ccccc1C,Potency,[9],"inconclusive: 55.6 µM [activator, partial curve]"
C=CCOC(=O)/C=C\C(=O)OCC=C,Potency,[9],inactive
same,Potency,[2],"inconclusive: 62.8 µM [rising, single point]"
C/C=C/C(=O)O,Potency,[7],inactive
CCN(CC)CCNc1ccc(CO)c2sc3ccccc3c(=O)c12,Potency,[9],inactive
same,Potency,[6],"inconclusive: 23.9 µM [cytotoxic, single point]"
CCCCCCC(C)O (stereo not drawn),Potency,[7],inactive
CC/C(=C(/CC)c1ccc(O)cc1)c1ccc(O)cc1,Potency,[9],inactive
same,Potency,[2],"inconclusive: 19 µM [cytotoxic, partial curve]"
same,Potency,[6],"active: 15.4 µM and inconclusive: 27.5 µM [cytotoxic, partial curve] and inconclusive: 21.3 µM [cytotoxic, partial curve, poor fit]"
same,Potency,[8],"inconclusive: 54.5 µM [cytotoxic, single point]"
Nc1ncn([C@@H]2O[C@H](CO)[C@@H](O)[C@H]2O)c(=O)n1,Potency,[9],inactive
same,Potency,[2],"inconclusive: 34.7 µM [cytotoxic, partial curve]"
